# Source: the supplement of paper PMC10126150
# Values marked as one replicate rest on one cluster of the flow cell; about a third of the high ones do not repeat.
# System: ATP
# Assay: switch fluorescence ratio, 500 uM ATP over buffer (Cy3 cluster intensity, sum of 5 cycles each) (fold (ratio)); higher = stronger signal-on switching upon ATP binding; sequences stand for … in TCGTCGGCAGCGTCAGATGTGTATAAGAGACAGTTTTTTTTTTTTTTTTTTTTTTTTT…TC
# Conditions: aptamer strand: ATP DNA aptamer (quencher-CACCTGGGGGAGTATTGCGGAGGAAGG + anchor), 100 nM annealed; ATP concentration: 500 uM; one replicate
# Outline: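 The quencher-labelled ATP aptamer, at 100 nM, was annealed to Cy3-labelled switching-strand clusters on a modified Illumina MiSeq flow-cell. The clusters were imaged in selection buffer, then after 15 min with 500 uM ATP at 22 °C, and this buffer/ATP cycle ran five times with NaOH stripping and re-annealing between runs. Per-cluster fluorescence ratios, summed target-cycle over summed buffer-cycle Cy3 intensity, were averaged per switch-domain sequence. Clusters outside 100-1000 RFU were excluded.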
# 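Also: ATP exposure 15 min at 22 °C before imaging.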
row,Sequence,switch fluorescence ratio
1,TTTTACCAGT,0.979
2,TTTTAGAGGC,1.01
3,TTTTATAGGC,1.04
4,TTTTATCGTC,1.01
5,TTTTATGTA,0.993
6,TTTTATTTCT,1.01
7,TTTTCAATGG,1.13
8,TTTTCCAGGA,0.998
9,TTTTCCCGTT,1.01
10,TTTTCCGCCT,1.39
11,TTTTCCTGGT,0.979
12,TTTTCCTGTT,1.03
13,TTTTCGAGGC,0.962
14,TTTTCGATCA,0.978
15,TTTTCGCTTG,1.02
16,TTTTCGTTG,0.992
17,TTTTCTACTC,0.98
18,TTTTGACACT,1.02

row,Sequence,switch fluorescence ratio
1,TTTTGACCAG,0.968
2,TTTTGCAAAA,1.03
3,TTTTGCCTCT,0.973
4,TTTTGCTAAG,0.963
5,TTTTGCTGCT,1
6,TTTTGGAAG,1.01
7,TTTTGGCCTC,0.993
8,TTTTGGGCG,0.968
9,TTTTGGTCTA,0.978
10,TTTTGTCT,0.982
11,TTTTTCAAAG,0.967
12,TTTTTCGTGC,0.991
13,TTTTTCTTG,0.944
14,TTTTTGAATA,0.982
15,TTTTTGCTCC,1.07
16,TTTTTGGGT,0.954
17,TTTTTTCG,0.955
